The other results are listed elsewhere or left out.
Legend:
Assay in all cases: glycan array binding signal (z-score within array); higher = stronger binding
Settings in all cases: glycan notation: IUPAC condensed, linker removed
[1] = molecular target: Neu5Ac(a2-3)Gal(b1-4)GlcNAc(b1-2)[Neu5Ac(a2-3)Gal(b1-4)GlcNAc(b1-4)]Man(a1-3)[GlcNAc(b1-4)][Neu5Ac(a2-3)Gal(b1-4)GlcNAc(b1-4)Man(a1-6)]Man(b1-4)GlcNAc(b1-4)GlcNAc
Procedure, shortened: (§1)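 Columns mapping to the same glycan were averaged after glycan names were converted to IUPAC-condensed notation. The data come from 3228 arrays in the Consortium for Functional Glycomics database, limited to those with an available protein sequence. Binding is reported as a within-array Z-score averaged across arrays of one protein sequence and across linkers.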

[2] = molecular target: Neu5Ac(a2-3)Gal(b1-4)GlcNAc(b1-2)[Neu5Ac(a2-3)Gal(b1-4)GlcNAc(b1-6)]Man(a1-6)[Neu5Ac(a2-3)Gal(b1-4)GlcNAc(b1-2)Man(a1-3)]Man(b1-4)GlcNAc(b1-4)GlcNAc
Procedure, shortened: as §1

[3] = molecular target: Neu5Ac(a2-3)Gal(b1-4)GlcNAc(b1-2)[Neu5Ac(a2-3)Gal(b1-4)GlcNAc(b1-6)]Man(a1-6)[Neu5Ac(a2-3)Gal(b1-4)GlcNAc(b1-2)Man(a1-3)][GlcNAc(b1-4)]Man(b1-4)GlcNAc(b1-4)GlcNAc
Procedure, shortened: as §1

[4] = molecular target: Neu5Ac(a2-3)Gal(b1-4)GlcNAc(b1-3)Gal
Procedure, shortened: as §1

[5] = molecular target: Neu5Ac(a2-3)Gal(b1-4)GlcNAc(b1-3)Gal(b1-3)GlcNAc
Procedure, shortened: as §1

[6] = molecular target: Neu5Ac(a2-3)Gal(b1-4)GlcNAc(b1-3)Gal(b1-4)GlcNAc
Procedure, shortened: as §1

[7] = molecular target: Neu5Ac(a2-3)Gal(b1-4)GlcNAc(b1-3)Gal(b1-4)GlcNAc(b1-2)Man(a1-3)[Neu5Ac(a2-3)Gal(b1-4)GlcNAc(b1-3)Gal(b1-4)GlcNAc(b1-2)Man(a1-6)]Man(b1-4)GlcNAc(b1-4)GlcNAc
Procedure, shortened: as §1

[8] = molecular target: Neu5Ac(a2-3)Gal(b1-4)GlcNAc(b1-3)Gal(b1-4)GlcNAc(b1-3)Gal(b1-4)GlcNAc
Procedure, shortened: as §1

[9] = molecular target: Neu5Ac(a2-3)Gal(b1-4)GlcNAc(b1-3)Gal(b1-4)GlcNAc(b1-3)Gal(b1-4)GlcNAc(b1-2)Man(a1-3)[Neu5Ac(a2-3)Gal(b1-4)GlcNAc(b1-3)Gal(b1-4)GlcNAc(b1-3)Gal(b1-4)GlcNAc(b1-2)Man(a1-6)]GalNAc
Procedure, shortened: as §1

[10] = molecular target: Neu5Ac(a2-3)Gal(b1-4)GlcNAc(b1-3)Gal(b1-4)GlcNAc(b1-3)GalNAc
Procedure, shortened: as §1

[11] = molecular target: Neu5Ac(a2-3)Gal(b1-4)GlcNAc(b1-3)Gal(b1-4)GlcNAc(b1-3)[Neu5Ac(a2-3)Gal(b1-4)GlcNAc(b1-3)Gal(b1-4)GlcNAc(b1-6)]GalNAc
Procedure, shortened: as §1

[12] = molecular target: Neu5Ac(a2-3)Gal(b1-4)GlcNAc(b1-3)Gal(b1-4)GlcNAc(b1-6)[Gal(b1-3)]GalNAc
Procedure, shortened: as §1

[13] = molecular target: Neu5Ac(a2-3)Gal(b1-4)GlcNAc(b1-3)Gal(b1-4)[Fuc(a1-3)]GlcNAc
Procedure, shortened: as §1

[14] = molecular target: Neu5Ac(a2-3)Gal(b1-4)GlcNAc(b1-3)GalNAc
Procedure, shortened: as §1

[15] = molecular target: Neu5Ac(a2-3)Gal(b1-4)GlcNAc(b1-3)[Neu5Ac(a2-3)Gal(b1-4)GlcNAc(b1-6)]GalNAc
Procedure, shortened: as §1

[16] = molecular target: Neu5Ac(a2-3)Gal(b1-4)GlcNAc(b1-6)GalNAc
Procedure, shortened: as §1

[17] = molecular target: Neu5Ac(a2-3)Gal(b1-4)GlcNAc(b1-6)[Gal(b1-3)]GalNAc
Procedure, shortened: as §1

[18] = molecular target: Neu5Ac(a2-3)Gal(b1-4)GlcNAc(b1-6)[Neu5Ac(a2-3)Gal(b1-3)]GalNAc
Procedure, shortened: as §1

[19] = molecular target: Neu5Ac(a2-3)Gal(b1-4)GlcNAc6S
Procedure, shortened: as §1

[20] = molecular target: Neu5Ac(a2-3)Gal(b1-4)[Fuc(a1-3)]GlcNAc
Procedure, shortened: as §1

[21] = molecular target: Neu5Ac(a2-3)Gal(b1-4)[Fuc(a1-3)]GlcNAc(b1-2)Man
Procedure, shortened: as §1

[22] = molecular target: Neu5Ac(a2-3)Gal(b1-4)[Fuc(a1-3)]GlcNAc(b1-3)Gal
Procedure, shortened: as §1

[23] = molecular target: Neu5Ac(a2-3)Gal(b1-4)[Fuc(a1-3)]GlcNAc(b1-3)Gal(b1-4)GlcNAc
Procedure, shortened: as §1

[24] = molecular target: Neu5Ac(a2-3)Gal(b1-4)[Fuc(a1-3)]GlcNAc(b1-3)Gal(b1-4)[Fuc(a1-3)]GlcNAc(b1-3)Gal(b1-4)[Fuc(a1-3)]GlcNAc
Procedure, shortened: as §1

[25] = molecular target: Neu5Ac(a2-3)Gal(b1-4)[Fuc(a1-3)]GlcNAc(b1-3)GalNAc
Procedure, shortened: as §1

[26] = molecular target: Neu5Ac(a2-3)Gal(b1-4)[Fuc(a1-3)]GlcNAc(b1-6)[Gal(b1-3)]GalNAc
Procedure, shortened: as §1

[27] = molecular target: Neu5Ac(a2-3)Gal(b1-4)[Fuc(a1-3)]GlcNAc(b1-6)[Neu5Ac(a2-3)Gal(b1-3)]GalNAc
Procedure, shortened: as §1

[28] = molecular target: Neu5Ac(a2-3)Gal(b1-4)[Fuc(a1-3)]GlcNAc6S
Procedure, shortened: as §1

[29] = molecular target: Neu5Ac(a2-3)Gal6S(b1-4)GlcNAc
Procedure, shortened: as §1

[30] = molecular target: Neu5Ac(a2-3)Gal6S(b1-4)[Fuc(a1-3)]GlcNAc
Procedure, shortened: as §1

Neu5Ac(a2-3)GalNAc = molecular target: Neu5Ac(a2-3)GalNAc
Procedure, shortened: as §1

[31] = molecular target: Neu5Ac(a2-3)GalNAc(b1-4)GlcNAc
Procedure, shortened: as §1

[32] = molecular target: Neu5Ac(a2-3)[GalNAc(b1-4)]Gal(b1-4)Glc
Procedure, shortened: as §1

[33] = molecular target: Neu5Ac(a2-3)[GalNAc(b1-4)]Gal(b1-4)GlcNAc
Procedure, shortened: as §1

[34] = molecular target: Neu5Ac(a2-3)[GalNAc(b1-4)]Gal(b1-4)GlcNAc(b1-3)GalNAc
Procedure, shortened: as §1

[35] = molecular target: Neu5Ac(a2-3)[Neu5Ac(a2-6)]GalNAc
Procedure, shortened: as §1

Neu5Ac(a2-6)Gal = molecular target: Neu5Ac(a2-6)Gal
Procedure, shortened: as §1

B1: Cohesin-hMARCO (Homo sapiens) (protein)
chain: LDDLDAVRIKVDTVNAKPGDTVRIPVRFSGIPSKGIANCDFVYSYDPNVLEIIEIEPGDIIVDPNPDKSFDTAVYPDRKIIVFLFAEDSGTGAYAITKDGVFATIVAKVKEGAPNGLSVIKFVEVGGFANNDLVEQKTQFFDGGANVGDTTEPATPTTPVTTPTTTDDLDAASVRIVGSSNRGRAEVYYSGTWGTICDDEWQNSDAIVFCRMLGYSKGRALYKVGAGTGQIWLDNVQCRGTESTLWSCTKNSWGHHDCSHEEDAGVECSVHHHHHH
glycan array binding signal (z-score) [1]: -0.007 | glycan array binding signal (z-score) [2]: -0.382 | glycan array binding signal (z-score) [3]: -0.419 | glycan array binding signal (z-score) [4]: -0.069 | glycan array binding signal (z-score) [5]: -0.492 | glycan array binding signal (z-score) [6]: -0.514 | glycan array binding signal (z-score) [7]: -0.478 | glycan array binding signal (z-score) [8]: -0.429 | glycan array binding signal (z-score) [9]: -0.425 | glycan array binding signal (z-score) [10]: -0.222 | glycan array binding signal (z-score) [11]: -0.558 | glycan array binding signal (z-score) [12]: -0.369 | glycan array binding signal (z-score) [13]: -0.528 | glycan array binding signal (z-score) [14]: -0.426 | glycan array binding signal (z-score) [15]: -0.546 | glycan array binding signal (z-score) [16]: 0.969 | glycan array binding signal (z-score) [17]: -0.481 | glycan array binding signal (z-score) [18]: -0.569 | glycan array binding signal (z-score) [19]: -0.305 | glycan array binding signal (z-score) [20]: -0.198 | glycan array binding signal (z-score) [21]: 2.21 | glycan array binding signal (z-score) [22]: -0.287 | glycan array binding signal (z-score) [23]: -0.532 | glycan array binding signal (z-score) [24]: -0.404 | glycan array binding signal (z-score) [25]: -0.191 | glycan array binding signal (z-score) [26]: -0.185 | glycan array binding signal (z-score) [27]: -0.409 | glycan array binding signal (z-score) [28]: 0.051 | glycan array binding signal (z-score) [29]: -0.346 | glycan array binding signal (z-score) [30]: -0.41 | glycan array binding signal (z-score) (Neu5Ac(a2-3)GalNAc): -0.477 | glycan array binding signal (z-score) [31]: -0.484 | glycan array binding signal (z-score) [32]: -0.018 | glycan array binding signal (z-score) [33]: -0.359 | glycan array binding signal (z-score) [34]: 0.154 | glycan array binding signal (z-score) [35]: -0.335 | glycan array binding signal (z-score) (Neu5Ac(a2-6)Gal): -0.407
